Reference: PubChem BioAssay AID2546 (National Center for Advancing Translational Sciences (NCATS), 2010)
Hit rate of the full screen: of about 310,000 compounds, about 11,000 (3.5%) were called active. Inconclusive results, whose numbers are uncertain, are shown with a selection of clear calls. Calls follow the shape of the dose curve; as a rule, active = well fitted inhibition curve with a large enough effect; inconclusive = small, poorly fitted or top-dose-only effect, or effect the other way; inactive = flat fitted curve, though single readings scatter. No potency is given beside an inconclusive call; the fits are too rough.

Assay: VP16 counterscreen qHTS for inhibitors of ROR gamma transcriptional activity;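 also: Gal4-VP16 expression switched on by copper sulfate through the metallothionein promoter; nearly all actives have a fitted effect of over 50% in size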
Conditions: Drosophila S2 Gal4-VP16 UAS-luciferase, luminescence, 20 h; series mostly up to 53.6 µM
Potency is read from the fitted curve at half-maximal effect; tags tell the direction and shape of the fitted curve.

SMILES	Potency
Cc1cccc(C)c1-n1c(SCC(=O)N2CC(=O)Nc3ccccc32)nc2ccccc2c1=O	inactive
COc1ccc([N+](=O)[O-])c(S(=O)(=O)c2ccccc2)n1	active: 5.01 µM
CC1CCN(C(=S)NC2CC3CCC2C3)CC1 (stereo unspecified)	inconclusive [inhibitor, single point]
O=C(Nc1ccc(-c2nc3ccccc3[nH]2)cc1)c1ccco1	inconclusive [inhibitor, single point]
O=C(Nc1ccccc1)O/N=C/c1ccc(F)cc1	inconclusive [inhibitor, single point]
Cc1cc(Nc2ccccc2O)c2ccccc2n1	inconclusive [inhibitor, single point]
CC(C)c1ccccc1OCCNC(=S)NC(=O)c1cccnc1	inconclusive [inhibitor, single point]
COc1cc2c(cc1OC)C(=S)NC1(CCCC1)C2	active: 14.1 µM
C=CCn1c(Sc2ncc([N+](=O)[O-])s2)n[nH]c1=O	active: 3.98 µM
O=C(/C=C\Nc1ccccn1)c1ccccc1	active: 12.6 µM
COc1ccc(C(=O)Nc2ccc3oc(Cc4ccc(Cl)cc4)nc3c2)cc1OC	inactive
CCOC(=O)c1sc(NC(=S)NC(=O)C2CC2)cc1C	active: 1 µM
C1=C(CCNc2ncnc3c2[nH]c2ccccc23)CCCC1	active: 0.708 µM
CC(=O)N/N=C\c1cccc(OC/C=C/c2ccccc2)c1	inconclusive [activator, single point]
O=c1[nH]c(C2CCN(S(=O)(=O)c3cccc(C(F)(F)F)c3)CC2)nc2c1nnn2Cc1cccc(F)c1	inconclusive [inhibitor, single point]
COc1cccc(-n2c(SCC(=O)NC3CCCC3)nnc2-c2ccco2)c1	inconclusive [activator, single point]
CC1(C)Cc2c(sc3ncnc(NNC(=S)NCc4ccccc4)c23)CO1	active: 3.16 µM
COc1ccc2cc(S(=O)(=O)c3ccccc3)c(=O)oc2c1	inactive
COc1ccccc1C(=O)NNC(=S)NC(=O)c1sc2ccccc2c1Cl	active: 12.6 µM
CC(=O)Nc1ccc(S(=O)(=O)Nc2cc(C)c(-n3nc4ccccc4n3)cc2O)cc1	inconclusive [inhibitor, single point]
Cc1cc2ccccn2c1C(=O)c1ccc(NN)c([N+](=O)[O-])c1	inconclusive [activator, partial curve, poor fit]
COc1ccc(Cl)cc1NC(=S)NCCc1ccc(F)cc1	active: 17.8 µM
N#CC(C#N)=c1ccc2c(c1)NC1(CCCCC1)N=2	inconclusive [inhibitor, single point]
CC(NS(=O)(=O)OCC(Cl)(Cl)Cl)c1ccc(C(C)(C)C)cc1 (stereo unspecified)	inconclusive [inhibitor, single point]
CCN(CCO)c1ccc(N=Nc2cc(C)[nH]n2)cc1	inconclusive [inhibitor, single point]
O=[N+]([O-])c1ccc2[nH]cc(S(=O)(=O)N3CCN(c4cccc(Cl)c4)CC3)c2c1	inconclusive [inhibitor, single point]

SMILES	Potency
CCCN(CCC)CC(O)Cn1cc(/C=C/C(=O)c2cccs2)c2ccccc21 (stereo unspecified)	inconclusive [inhibitor, single point]
COC(=O)/C=C1\S/C(=N/N=C/c2ccccc2)NC1=O	inconclusive [inhibitor, single point]
CCOC(=O)CN1C(=O)C(C)(C)Oc2ccc(C(=O)Nc3ccccc3)cc21	inactive
CN(c1ccccc1)S(=O)(=O)c1ccc(C(=O)NCCc2ccccc2)cc1	inconclusive [activator, single point]
O=C1C2CCCN2C(c2ccccc2)N1c1ccc(F)cc1 (stereo unspecified)	inactive
O=C(CCCN1C(=O)CCC1=O)Nc1ccc2c(c1)OCCO2	inconclusive [inhibitor, single point]
COc1cccc(-c2cc(C(=O)N3CCOCC3)no2)c1	inconclusive [inhibitor, single point]
CC1=NN(C(=O)c2ccc(Cn3nc(C)c([N+](=O)[O-])c3C)o2)C(O)(C(F)(F)F)C1 (stereo unspecified)	active: 7.08 µM
Cc1cc(C(=O)OC(C(=O)Nc2cccc(C(F)(F)F)c2)c2ccccc2)c(C)o1 (stereo unspecified)	inconclusive [inhibitor, single point]
CC(=O)NN1C(=O)/C(=C\c2ccc(Br)o2)SC1=S	inconclusive [inhibitor, single point]
Nc1nc(N2CCOCC2)n[nH]1	inactive
Cn1cnc([N+](=O)[O-])c1S(=O)(=O)c1cccc(Cl)c1	active: 5.01 µM
Cc1nnc2ccc(Oc3ccc(-c4ccccc4)cc3)nn12	inconclusive [inhibitor, single point]
CC(C)OCCCN1C(=O)c2[nH]nc(-c3ccccc3O)c2C1c1cccc(Cl)c1 (stereo unspecified)	inconclusive [inhibitor, single point]
O=C(CCN1CCc2ccccc2CC1)c1ccc2c(c1)OCCO2	active: 3.98 µM
COc1ccc(S(=O)(=O)Nc2cc(OC)cc3cccnc23)cc1	inconclusive [inhibitor, single point]
CN(C)S(=O)(=O)c1cccc(-c2nnc3n2CCCCC3)c1	inactive
O=Cc1c(Sc2ccccn2)nc2ccccn2c1=O	inconclusive [inhibitor, single point]
COc1ccccc1OCC(=O)NNC(=O)c1ccoc1C	inactive
COc1cc(NC(=O)CCCc2c[nH]c3ccccc23)cc(OC)c1	inconclusive [inhibitor, single point]
S=C(NCCN(C1CCCCC1)C1CCCC1)Nc1cccc(Cl)c1	inconclusive [inhibitor, single point]
COc1ccc(-c2nnc(-c3ccccc3O)o2)cc1	active: 12.6 µM
COc1ccc2c(c1OC)C(=O)OC2Nc1nc(-c2cc3ccccc3oc2=O)cs1 (stereo unspecified)	inconclusive [inhibitor, single point]
O=C(CCNc1ccc(Cl)c(C(F)(F)F)c1)c1ccco1	inconclusive [inhibitor, single point]
Cc1ccc(NC(=S)N(CCN2CCOCC2)Cc2ccccc2F)cc1Cl	inconclusive [inhibitor, single point]
O=C(/C=C/c1ccc2c(c1)OCO2)Nc1cccnc1	inconclusive [inhibitor, single point]

SMILES	Potency
Cc1cc(=O)[nH]c(-n2nc(C)cc2C)n1	active: 3.16 µM
Cc1ccc(-c2noc(C3CCN(S(=O)(=O)c4ccc5c(c4)OCCO5)CC3)n2)o1	inconclusive [inhibitor, single point]
CN(C)c1ccc(NC(=O)c2ccc3nsnc3c2)cc1	inconclusive [inhibitor, single point]
S=C(NCC1CCCCC1)Nc1ccc(Oc2ccccc2)cc1	active: 5.01 µM
CN1C(=S)SC(C)(NO)C1(C)C (stereo unspecified)	inconclusive [inhibitor, single point]
O=C(Nc1cc(Cl)cc(Cl)c1)C1CCC(=O)N1Cc1ccccc1Cl (stereo unspecified)	active: 15.8 µM
O=C(CSc1ccc2ccccc2c1)Nc1ccncc1	inconclusive [inhibitor, single point]
COC(=O)CCSCc1cn2cc(Cl)ccc2n1	inconclusive [inhibitor, partial curve]
Cc1ccc(/C=N/NC(=O)c2cccs2)s1	active: 11.2 µM
Cc1ncc(CO)c2c1Oc1nc(-c3ccccc3)nc(SCC(=O)Nc3cccc(O)c3)c1C2	inconclusive [inhibitor, single point]
CCOc1c(Cl)cc(CNCC(C)C)cc1OC	inactive
C/C(CCc1ccc2c(c1)OCO2)=N\NC(=S)NC(C)C	active: 4.47 µM
Cc1ccccc1-n1c(=O)n(Cc2ccccc2)c(=O)c2[nH]cnc21	inactive
Cc1cc(-c2ccccc2)n2ncc(-c3ccccc3)c2n1	active: 10 µM
COc1ccccc1/C(C)=N/NC(=S)NCc1ccccc1	active: 7.08 µM
Cn1c(-c2sc3ccccc3c2Cl)n[nH]c1=S	inconclusive [inhibitor, single point]
COc1ccc(-n2c(Cc3cccn3C)nnc2SCC(=O)Nc2cccc(F)c2)cc1	inconclusive [inhibitor, partial curve]
CCCCn1c(CCC)nc([N+](=O)[O-])c1Sc1ccc(Cl)cn1	active: 10 µM
C/C(=N\NC(=O)c1c[nH]c2ccccc12)c1ccccn1	inconclusive [activator, partial curve]
Nc1ccc(-c2nc3cc(N)ccc3s2)cc1	inconclusive [inhibitor, partial curve]
C=C1C(=O)O[C@H]2C[C@]3(C)C([C@@H](OC(=O)/C(C)=C/C)[C@H]12)[C@](C)(O)CC[C@H]3O (stereo partly specified)	inconclusive [inhibitor, single point]
CCCOC(=O)c1ccc(-n2nnnc2SCC(=O)N2CCCCC2)cc1	inconclusive [inhibitor, single point]
O=C(N/N=C/c1ccccc1O)c1cccc(C(F)(F)F)c1	active: 2 µM
O=c1cnc2ccccc2n1Cc1ccccc1C(F)(F)F	inactive
